# Source: the supplement of paper PMC11417369
# ± gives the standard deviation of the averaged measurements. The list shows a part of the results.
# System: PfAP2-G AP2 domain (GST-tagged)
# Experiment: gcPBM binding intensity (ln(normalized median fluorescence intensity)); higher = stronger DNA binding
# Summary of the method: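 Plasmodium falciparum DNA-binding domains carrying a GST tag were expressed in E. coli and applied for 1 h, at about 25 μg on average, to an Agilent 4 × 180k array. The array held primer-extended double-stranded 36-bp intergenic genomic probes together with negative controls, and binding took place in 1× PBS with 1% milk, 0.2 mg/ml BSA, 0.5% salmon testes DNA and 0.03% Triton X-100. An Alexa488 anti-GST antibody detected bound protein, and the array was scanned at 488 nm. Binding intensity is taken as the highest Masliner-normalised natural-log median intensity across replicate spots of either probe orientation.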
row,Sequence,gcPBM binding intensity (ln)
1,AATATAACTTAGAATTGTACATAAAAAAAAATATAT [XGTACX_site3313],11.1 ± 0.73
2,TAAGAAATAAATAGTACACACATAGACACACGCACA [CACACA_site6821],11.3 ± 0.79
3,CTCTTTTCTTATAATACACACAGTAATATATATATA [CACACA_site1520],10.4 ± 0.38
4,ATTTATTTATACAAAGTGCAATATTTTGTTAAAGTC [GTGCAC_site9618],9.99 ± 0.16
5,AAACAAAATATGGTTCATGAGCAAAAGTTTATTTTG [XGTACX_negctrl_site531],9.84 ± 0.085
6,AATGTAAAATATAAATGTACATATATATATATATAT [XGTACX_site5071],11 ± 0.45
7,TATAAAATACATTTATAATATATATATATATTTTTT [TGCATGCA_negctrl_site435],9.66 ± 0.11
8,ATATGAAATATATAAATATGTTTATATATATATATA [GTGCAC_negctrl_site94],9.89 ± 0.58
9,TGTGTTTATACGTTTTGTACATATTTTTATTTTGTA [XGTACX_site6425],11 ± 0.49
10,TTTACATCAACCTTTTCACACATTCATATACAGATA [CACACA_site6152],10.1 ± 0.13
11,TCATTAAAGGAAAAATGTACGTATAAATAAATATAT [XGTACX_site2587],11.3 ± 0.61
12,TAATGGAAACCATTTATTTTCTGCAATATATTTTTT [CACACA_negctrl_site1653],9.96 ± 0.16
13,ATACATATATATATATGTACACATAAACATGAGTGA [XGTACX_site3200],11.4 ± 0.76
14,TAAATTTGTGGGATTTCACACAGGTTTATTTACATT [CACACA_site5455],9.81 ± 0.14
15,CTCTTGTCATTTTGCACACACACATGTATAGGTTAT [CACACA_site3057],10.5 ± 0.24
16,ATGTAGGTTAATTATTGTACGTAGGGGGTGTATATT [XGTACX_site3973],11.8 ± 1.2
17,TTCAGAGAATAAAAATGTACATATAATATTTTAAAA [XGTACX_site577],11.2 ± 0.65
18,TTTCTAATTTATATCACACACATATATTTATAGTAA [CACACA_site6280],9.96 ± 0.24
19,GTTTACTAATATTGCACACGAATATGAAAAAGAGAA [CACACA_site2897],10.2 ± 0.25
20,GTGTTAACTATTATGAGTACTTATGTATTAATTCAT [XGTACX_site7767],11.4 ± 0.88
21,TTGCTTATTAAATGGGGTACATTATATATATATATA [XGTACX_site2515],11.6 ± 0.84
22,TATAATAAAATATGTACACACATACAGACATATATA [CACACA_site6693],11.5 ± 1

row,Sequence,gcPBM binding intensity (ln)
1,ATATATATATAATGTGTACACACATATGTATTTATA [CACACA_site8170],11.7 ± 0.67
2,TAATTAAGATGATAAAAATTGAAAAAACAATTTTAA [CACACA_negctrl_site658],9.445 ± 0.049
3,ATAATATCTTCTTTTTTTTTTTTTTTTTTTTTTTTT [CACACA_negctrl_site1005],10.9 ± 0.56
4,AAATGATGCATTTGTCATTAAAATTGTGAAATATTA [CACACA_negctrl_site231],9.66 ± 0.28
5,AAAAAAAAAAAAAAAAGTACATATATATATAATTAT [XGTACX_site7836],11.7 ± 0.89
6,AGAGTATATAAAGTAACACACAATAAAATAAAATAA [CACACA_site2328],9.925 ± 0.007
7,CATATAGTATAAATTTGTACATAAATATATATATAT [XGTACX_site7477],10.9 ± 0.49
8,TTTAAAAACAAATATTGTACAAATTAAAATATATCA [XGTACX_site7220],10.8 ± 0.43
9,AGAGCATAATAAAACACACACATACATACAGATATA [CACACA_site4671],9.86 ± 0.11
10,CACTAATATATATACAGTACATAATAAAGTATATAA [XGTACX_site6875],10.8 ± 0.53
11,TGATGATATAAAAACACACACATATAATATAATACT [CACACA_site1208],9.92 ± 0.042
12,TACATACACGGACACACACACATATATATATATATA [CACACA_site5883],11.3 ± 0.88
13,TAATTTTATATTAAAAGTACATAATAAAAACTATAA [XGTACX_site8779],11.3 ± 0.94
14,AAGAAATATATATATATATATATATATATATATGTA [TGCATGCA_negctrl_site442],9.67 ± 0.16
15,AAAAAAAAAAAACATACACACAAATATATACATACA [CACACA_site4011],9.79 ± 0.085
16,CTGTTTTACTTTAGTAGTACAATAAAAATATAAAAA [XGTACX_site2934],11.5 ± 1.1
17,TATTACCCATATTATACACACATATATTATATATAT [CACACA_site1567],10.3 ± 0.2
18,ATTAAATATGAGGGAACACACACATGATATATAAAT [CACACA_site8755],10.05 ± 0.078
19,TTATATAAAGAATGTACACACAGAAATGCACCCACA [CACACA_site2282],11.5 ± 0.81
20,ATGTATAAACAAAAGGGTACATATATATATATATAT [XGTACX_site2087],11.1 ± 0.81
21,AGAAAAATTACAAAATGTACATAATGTGTTATTAAT [XGTACX_site7877],10.9 ± 0.47
22,ATTAAGTACTAAAAAGTGCAGTTCGGTACTGTGCTT [GTGCAC_site9755],11 ± 0.63
